This is one part of the list.

The subject of test [1] is HSkMC (human skeletal muscle cells). Put plainly: cytotoxicity call (relative viability < 0.9). The following applies: 10 µM.
The subject of test [2] is S. aureus RN4220. Put plainly: growth inhibition call (relative growth <= 0.2). The following applies: 50 µM.

On to `O=Cc1ccc[nH]1`, for which the cytotoxicity call in test [1] is “inactive”. For the same compound, the growth inhibition call in test [2] is “inactive”.

For `CC(C)C[C@H](NP(=O)(O)O[C@H]1O[C@@H](C)[C@@H](O)[C@@H](O)[C@@H]1O)C(=O)N[C@H](Cc1c[nH]c2ccccc12)C(=O)O`, the cytotoxicity call in test [1] is “inactive”. In test [2], the growth inhibition call was “inactive”.

`FC(F)(F)c1ccccc1-c1ncc(-c2ccccc2)o1`: the cytotoxicity call in test [1] is “inactive”. Moreover, in test [2], the growth inhibition call is “inactive”.

As to `O=C(N/N=C/[C@H](O)[C@@H](O)[C@H](O)CO)c1ccccc1O`, in test [1], the cytotoxicity call was “inactive”. The growth inhibition call in test [2] was “inactive”.

On to `COc1ccc(NC(=O)Nc2ccc3c(c2)C(=O)N([C@H](C)CO)C[C@H](C)[C@H](CN(C)C(=O)Nc2ccc(C(F)(F)F)cc2)O3)cc1`, for which the cytotoxicity call in test [1] was “inactive”. In test [2], the growth inhibition call is “inactive”.

On to `COc1ccc(NC(=O)Nc2ccc3c(c2)C(=O)N([C@@H](C)CO)C[C@@H](C)[C@H](CN(C)CC2CCCCC2)OCCCC[C@H](C)O3)cc1`, for which the cytotoxicity call in test [1] is “inactive”. The growth inhibition call in test [2] is “inactive”.

On to `C[C@@H]1CCCCO[C@H](CN(C)Cc2ccncc2)[C@@H](C)CN([C@@H](C)CO)C(=O)c2cc(NC(=O)Nc3ccc4c(c3)OCO4)ccc2O1`, for which, in test [1], the cytotoxicity call was “inactive”. The growth inhibition call in test [2] was “inactive”.

As to `C[C@@H]1CN([C@@H](C)CO)C(=O)c2cc(NC(=O)Cc3ccccc3)ccc2O[C@@H]1CN(C)S(C)(=O)=O`, the cytotoxicity call in test [1] was “inactive”. Further, the growth inhibition call in test [2] was “inactive”.

Consider `Nc1ncnc2c1ncn2[C@@H]1O[C@H](COP(=O)(O)O)[C@@H](O)[C@H]1O`, for which the cytotoxicity call in test [1] is “inactive”. Also, the growth inhibition call in test [2] was “inactive”.

As to `C[C@@H]1CN([C@H](C)CO)C(=O)c2cc(NC(=O)NC3CCCCC3)ccc2O[C@@H](C)CCCCO[C@@H]1CN(C)S(=O)(=O)c1ccc(F)cc1`, in test [1], the cytotoxicity call was “inactive”. Also, in test [2], the growth inhibition call was “inactive”.

On to `C[C@@H]1CN([C@H](C)CO)C(=O)c2cc(NC(=O)CCC(F)(F)F)ccc2O[C@H]1CN(C)Cc1ccc(C(=O)Nc2ccccc2N)cc1`, for which the cytotoxicity call in test [1] was “inactive”. Further, the growth inhibition call in test [2] is “inactive”.

The record behind these values is the antibiotic and cytotoxicity screens of Wong et al. (2023).
